# Some of the results follow. At the low end of the ranking the order means little.
# Target: SIX1-Q177R homeodomain (UniProt Q15475)
# Assay: universal protein binding microarray
# Details: Universal all-10-mer PBM (8x60K, AMADID 030236), 300 nM GST-tagged protein, Alexa Fluor 488 anti-GST; buffer, salt, pH and temperature not stated; high values mean tight binding; most listed sequences are background and not binding sites; double strand, one strand shown
row,Sequence,binding signal [E-score]
1,CGGCAACA,0.0343
2,GAAAAATC,-0.164
3,ATAATGGA,-0.154
4,ATTTCAAG,-0.168
5,TATAGAGA,-0.138
6,AGATACCG,0.139
7,CATCAGGC,-0.13
8,CGCTCTAC,0.157
9,CAGAAGGA,-0.0839
10,AGCATTTC,-0.18
11,CATATCGG,-0.0523
12,ACTGTATG,-0.0846
13,GGAATTAA,0.0603
14,CGTTAGAA,-0.147
15,CAGGTAAC,0.0387
16,CCGTGCCA,0.0532
17,CACAGTTC,0.108
18,CAGATTAC,0.0021
19,ACGGAGAT,-0.0927
20,CTCTAACA,0.094
21,AGAGAAGG,-0.136
22,GAGAGTGA,-0.246
23,ATCCAAAC,0.011
24,ATTTATCC,0.000225
25,CTCAGGAA,-0.128

row,Sequence,binding signal [E-score]
1,AATGTGCT,-0.249
2,AGTTCCAA,-0.182
3,ACTTGGGC,-0.271
4,CCGCCCAG,0.165
5,AAGGCTTG,-0.281
6,CTACCGAA,-0.0994
7,CAATGAAC,0.0616
8,ATACATAC,0.139
9,GCGAGTGA,-0.0991
10,AGCGACGG,0.0201
11,AACAGGGC,-0.246
12,CAAAGTAC,-0.0414
13,GCATCGAC,-0.0519
14,CGCCCAAG,0.0949
15,CTGTAGTC,-0.153
16,CGATCCAA,-0.0315
17,CGCCGGAG,0.0618
18,GAGCCCCA,-0.0131
19,GACCAGAA,-0.00466
20,CCGCCTGA,0.131
21,AGATGGAA,-0.124
22,ATATAATA,-0.147
23,CGCTGGGC,0.04
24,ATCCGAAT,-0.0752
25,CCATTGAC,0.0458

row,Sequence,binding signal [E-score]
1,CATCTTAC,-0.0989
2,TAAGCCTA,-0.154
3,ACGGGCTG,-0.0589
4,GACGCGCA,-0.101
5,ATTATCGA,-0.0214
6,GACGACAC,0.429
7,CACCTACA,0.41
8,ATAAAAAT,-0.0813
9,AATGACGT,-0.06
10,AGGCGAGG,-0.0664
11,ACGACCGC,-0.0834
12,ATAATAAT,-0.105
13,AAAGTGCC,-0.0989
14,TAGTCCAA,-0.0607
15,TACTCAGA,-0.109
16,CATCTGAA,-0.131
17,GGGCACAA,0.0725
18,GGTCGTCA,-0.113
19,AGGGCGAT,-0.0825
20,GAGTACTC,0.174
21,CGCAGAGA,-0.0242
22,TACAGGAA,0.0366
23,CGCATTTA,-0.169
24,AACTCTCA,-0.2
25,AGACGCCC,0.121

row,Sequence,binding signal [E-score]
1,TCTGTCCA,-0.1
2,AATAATGG,-0.183
3,AAGCAAGT,-0.213
4,ACGAGTGG,0.115
5,ATGGAACC,-0.0911
6,ATTGACGG,-0.148
7,AAGAGGAA,-0.238
8,ACAGCAGG,-0.0423
9,TAAGGCGA,-0.0477
10,AGACCCTA,0.195
11,GCGCGTAA,-0.0166
12,ATCTGACC,0.00462
13,ACGCAATA,0.117
14,CGTGGCGA,-0.124
15,AGTAAACG,0.0279
16,CGACCTGA,-0.118
17,CTGCTATA,-0.00617
18,CGGTTAAG,0.00597
19,CGACAACG,-0.281
20,ACGTGGCA,-0.097
21,GAGGTATA,0.18
22,AGCGCGCA,-0.0902
23,GCGGCTAA,-0.0814
24,ACTTTCGG,-0.0985
25,GTGTTGAA,0.396

row,Sequence,binding signal [E-score]
1,AACACTGA,0.35
2,AGACTAAC,-0.206
3,AAGAATTG,-0.297
4,AATTCTAT,-0.229
5,AACGCACG,-0.116
6,GCGCGTAC,0.0558
7,GACTACGC,-0.0927
8,ACATGTGA,-0.252
9,ATTATCTG,-0.193
10,AATTTTCT,-0.155
11,ATTCCTTA,-0.183
12,TGCGAAAA,0.0459
13,GGAAACCC,0.011
14,CGTGGAAG,-0.0551
15,CGTCGATC,-0.0255
16,CGCACCCA,0.193
17,AAGGACTT,-0.0704
18,GAAGTCGC,-0.0881
19,AAGGCACA,-0.111
20,CAAGTCTA,-0.15
21,ACGATATC,-0.111
22,ACTCCTGA,0.206
23,CCTCAAGC,-0.0163
24,GAAAAACC,-0.106
25,ACCCCGAC,0.265

row,Sequence,binding signal [E-score]
1,GAGCTGGA,0.0361
2,TGCTTAAA,-0.109
3,AAAACCGT,-0.0744
4,AATCTCGC,-0.319
5,TACGACTA,-0.07
6,AAACTCGG,0.119
7,AGTGCCGA,-0.188
8,ATCGCGAA,-0.0326
9,CGCCAGCA,-0.155
10,GAGTTTAA,0.0842
11,TACCAGTA,0.0235
12,GAGGATGA,-0.115
13,ACGTGAGT,-0.0165
14,CGATACAG,-0.0585
15,CTCAACAG,-0.167
16,CAGGAGCC,-0.0536
17,GAGATCTC,-0.374
18,GCTCGATA,-0.089
19,CCTTGCCA,-0.133
20,ACTGGGCG,0.192
21,GGCTCCGA,-0.0309
22,AGCATTAC,-0.00506
23,AACAGTCA,-0.259
24,AGATAAAG,-0.0094
25,CAATCATG,0.0573

row,Sequence,binding signal [E-score]
1,TAGCGCTA,-0.143
2,ACCCCGGA,0.299
3,ATTGGTAC,0.0756
4,CGGATCCA,0.232
5,ATCTCTGA,0.0129
6,ATGTTTGC,-0.318
7,AGGATGAG,-0.166
8,CTGGACAG,-0.198
9,GATGCTAA,-0.0395
10,TTATCAAA,-0.0157
11,AGTAACCG,-0.126
12,GATCTGAA,-0.0826
13,GGACGGTA,-0.133
14,CCCCACCA,0.145
15,AAGTCAAA,-0.304
16,AGACACCA,0.458
17,GTTTGCAA,-0.00683
18,GATGCGTA,-0.0193
19,ATAACAAT,-0.0462
20,GTGCTGTA,0.164
21,TAAACTTA,-0.0745
22,GAAATGAC,-0.026
23,ATTTCAGG,-0.0309
24,TGCGCCCA,-0.0981
25,TACTAAGA,0.0294

row,Sequence,binding signal [E-score]
1,ACTCCAGA,0.0779
2,TCTCATAA,-0.00628
3,GGTTAGAC,-0.0877
4,TAAGCGAA,-0.174
5,TACATCTA,-0.226
6,ACTACGAG,0.0471
7,CAACAGCA,-0.142
8,GACAGTTA,-0.0963
9,CAGTTTCG,-0.11
10,ACAAAATC,-0.328
11,CAGACATC,-0.14
12,ATTTCGGG,-0.122
13,CATGTCCG,-0.149
14,GGGAACAC,0.368
15,CGTATACC,0.0016
16,ATCCTTTC,0.0221
17,ATTGCTAG,-0.016
18,CTAGCACC,0.203
19,AAGTTCTG,-0.224
20,AACGTACT,-0.0149
21,CGAACAGA,-0.184
22,GTCCCCCA,-0.277
23,ACTGTTCC,-0.249
24,CTACATGC,-0.101
25,GAATGTCC,-0.205

row,Sequence,binding signal [E-score]
1,CCGTGGTA,0.166
2,GTTCCCCA,-0.0128
3,CCACGCAA,0.0824
4,ACGGTTGA,-0.189
5,TAAAGATA,-0.0162
6,GCCAGATA,0.0012
7,CGCATACG,-0.0785
8,CTACCAAC,0.0578
9,CACTACTC,0.21
10,AGACAGAA,-0.129
11,ATTCGGCA,0.0233
12,ATCCTAAC,-0.0309
13,CTGATAAC,0.0865
14,CACCTGTA,0.232
15,GACGACGC,-0.115
16,CTAACAAC,-0.101
17,AGCTCACG,-0.255
18,ATCCATCC,-0.0336
19,AACTCCTC,0.0476
